# Reference: PubChem BioAssay (Tox21)
# Inconclusive means that the source gave no clear call. Such entries were picked first, then a sample of the others. Potencies beside an inconclusive call are fits to weak or partial responses and may not hold up. Active and inactive are the calls of the source. Calls follow the shape of the dose curve; as a rule, active = well fitted cell-killing curve with a large enough effect in the repeat runs; inconclusive = weak or mixed curves; inactive = no such curve, though single readings can be large or run the other way.
# Assay: qHTS assay to identify small molecule agonists of the peroxisome proliferator-activated receptor delta (PPARd) signaling pathway - cell viability counter screen (AID 743211); also: nearly all actives have a fitted effect of over 55% in size
# Conditions: PPARd-bla HEK293H viability, CellTiter-Glo luminescence, 17 h; activity change, negative = cytotoxicity: at 62.6 µM (top of the series)
# Outline: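 PPARd-bla HEK293H cells (UAS-beta-lactamase reporter) were treated with compounds for 17 h at 37 C. Viability was then read in the same wells by CellTiter-Glo luminescence after 30 min at room temperature.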
# % is scaled to controls: 0 for no effect and ±100 for the full control effect; potency is read from the fitted curve at half-maximal effect; tags tell the direction and shape of the fitted curve.
Structure (SMILES),Potency,"activity change, negative = cytotoxicity"
CCCCCC[C@@H](O)C/C=C\CCCCCCCC(=O)O,"inconclusive: 38.9 µM [cytotoxic, partial curve]",–
Cc1c(C)c([N+](=O)[O-])c(C(C)(C)C)c([N+](=O)[O-])c1C,"inconclusive: 61.6 µM [cytotoxic, single point]",–
CC[C@@H]([C@H](C)O)n1ncn(-c2ccc(N3CCN(c4ccc(OC[C@@H]5CO[C@@](Cn6cncn6)(c6ccc(F)cc6F)C5)cc4)CC3)cc2)c1=O,active: 29.8 µM,–
O=C(Nc1ccccc1)c1ccccc1O,"inconclusive: 30.9 µM [cytotoxic, partial curve, poor fit]",–
O=C1C(=O)c2ccccc2C(O)=C1C1CCC(c2ccc(Cl)cc2)CC1 (stereo not given),"inconclusive: 7.5 µM [cytotoxic, single point]",–
O=C(O)c1ccc2cc(C(=O)O)ccc2c1,–,inactive: -7.86% [at 81.1 µM]
O=C(c1ccc(F)cc1)C1CCN(CCn2c(=O)[nH]c3ccccc3c2=O)CC1,"inconclusive: 29.8 µM [cytotoxic, single point]",–
O=[N+]([O-])C1(Br)COCOC1,"inconclusive: 61.6 µM [cytotoxic, single point]",–
COc1ccc(C(=O)c2ccccc2O)c(O)c1,"inconclusive: 61.5 µM [cytotoxic, single point]",–
COc1cnc(NS(=O)(=O)c2ccc(N)cc2)nc1,–,inactive: -0.313%
